This note sets out measurements from article PMC9911399, “Two distinct binding modes provide the RNA-binding protein RbFox with extraordinary sequence specificity”.

Substitutions are numbered along the chain they refer to; changes in the protein carry UniProt numbers. The list shows a part of the results.

T1: RBFOX1 RRM (Homo sapiens, UniProt Q9NWB1 109-208)
T1 sequence: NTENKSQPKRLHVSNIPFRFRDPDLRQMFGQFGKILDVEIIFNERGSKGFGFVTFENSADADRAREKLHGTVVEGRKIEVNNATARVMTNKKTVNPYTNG

B1: ACGCGUG (DNA:RNA)
RNA: GGGAGACCGGAAUUCAGAUUGUCCACGCGUGUUAAAUCCCGUCGUAGCCACCA
DNA 1: CAATCTGAATTCCGGTCTCCC
DNA 2: TGGTGGCTACGACGGGATT
B2: GAUAGAU (DNA:RNA)
RNA: B1 RNA with A25G, C26A, G27U, C28A, U30A, G31U
DNA 1: CAATCTGAATTCCGGTCTCCC
DNA 2: TGGTGGCTACGACGGGATT
B3: GAAUCAC (DNA:RNA)
RNA: GGGAGACCGGAAUUCAGAUUGUCCGAAUCACUUAAAUCCCGUCGUAGCCACCA
DNA 1: CAATCTGAATTCCGGTCTCCC
DNA 2: TGGTGGCTACGACGGGATT
B4: AGAUACU (DNA:RNA)
RNA: B3 RNA with G25A, A26G, C29A, A30C, C31U
DNA 1: CAATCTGAATTCCGGTCTCCC
DNA 2: TGGTGGCTACGACGGGATT
B5: AACCCGA (DNA:RNA)
RNA: B1 RNA with C26A, G27C, G29C, U30G, G31A
DNA 1: CAATCTGAATTCCGGTCTCCC
DNA 2: TGGTGGCTACGACGGGATT
B6: CCCCGCU (DNA:RNA)
RNA: B1 RNA with A25C, G27C, U30C, G31U
DNA 1: CAATCTGAATTCCGGTCTCCC
DNA 2: TGGTGGCTACGACGGGATT
B7: AACAAGG (DNA:RNA)
RNA: B1 RNA with C26A, G27C, C28A, G29A, U30G
DNA 1: CAATCTGAATTCCGGTCTCCC
DNA 2: TGGTGGCTACGACGGGATT
B8: CACAGGC (DNA:RNA)
RNA: B3 RNA with G25C, A27C, U28A, C29G, A30G
DNA 1: CAATCTGAATTCCGGTCTCCC
DNA 2: TGGTGGCTACGACGGGATT
B9: CCCUAAU (DNA:RNA)
RNA: B3 RNA with G25C, A26C, A27C, C29A, C31U
DNA 1: CAATCTGAATTCCGGTCTCCC
DNA 2: TGGTGGCTACGACGGGATT
B10: GUGGCGC (DNA:RNA)
RNA: B3 RNA with A26U, A27G, U28G, A30G
DNA 1: CAATCTGAATTCCGGTCTCCC
DNA 2: TGGTGGCTACGACGGGATT
B11: AUGUUCG (DNA:RNA)
RNA: B1 RNA with C26U, C28U, G29U, U30C
DNA 1: CAATCTGAATTCCGGTCTCCC
DNA 2: TGGTGGCTACGACGGGATT
B12: UUUGGUU (DNA:RNA)
RNA: B1 RNA with A25U, C26U, G27U, C28G, G31U
DNA 1: CAATCTGAATTCCGGTCTCCC
DNA 2: TGGTGGCTACGACGGGATT
B13: CCUAGAU (DNA:RNA)
RNA: B1 RNA with A25C, G27U, C28A, U30A, G31U
DNA 1: CAATCTGAATTCCGGTCTCCC
DNA 2: TGGTGGCTACGACGGGATT
B14: ACGUCAC (DNA:RNA)
RNA: B3 RNA with G25A, A26C, A27G
DNA 1: CAATCTGAATTCCGGTCTCCC
DNA 2: TGGTGGCTACGACGGGATT
B15: CUAUGUC (DNA:RNA)
RNA: B3 RNA with G25C, A26U, C29G, A30U
DNA 1: CAATCTGAATTCCGGTCTCCC
DNA 2: TGGTGGCTACGACGGGATT
B16: UGGACUA (DNA:RNA)
RNA: B1 RNA with A25U, C26G, C28A, G29C, G31A
DNA 1: CAATCTGAATTCCGGTCTCCC
DNA 2: TGGTGGCTACGACGGGATT
B17: UAUAUCC (DNA:RNA)
RNA: B3 RNA with G25U, A27U, U28A, C29U, A30C
DNA 1: CAATCTGAATTCCGGTCTCCC
DNA 2: TGGTGGCTACGACGGGATT
B18: GACGACU (DNA:RNA)
RNA: B3 RNA with A27C, U28G, C29A, A30C, C31U
DNA 1: CAATCTGAATTCCGGTCTCCC
DNA 2: TGGTGGCTACGACGGGATT
B19: UCCGUUC (DNA:RNA)
RNA: B1 RNA with A25U, G27C, C28G, G29U, G31C
DNA 1: CAATCTGAATTCCGGTCTCCC
DNA 2: TGGTGGCTACGACGGGATT
B20: CUCCCGG (DNA:RNA)
RNA: B1 RNA with A25C, C26U, G27C, G29C, U30G
DNA 1: CAATCTGAATTCCGGTCTCCC
DNA 2: TGGTGGCTACGACGGGATT

The assay concerns the target T1, RBFOX1 RRM. Put plainly: EMSA; HiTS-Eq, 1 nM pool, 10 min; buffer printed only for the single-RNA assays: 10 mM Tris pH 7.5, 150 mM NaCl, 3.4 mM EDTA, 0.001% NP-40, 30 C. The settings on record: tags: His6 N-terminal (pET28a); label: 5' 32P. The gist of the method: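 Purified RbFox RRM (wild type or mutant) was equilibrated for 10 min in 50 µL with 1 nM of a 5′-radiolabelled pool of RNA with 7 randomized nucleotides, its flanks annealed to DNA oligonucleotides, across increasing protein concentrations. Free RNA was separated by 8% native PAGE, excised, reverse-transcribed, PCR-barcoded and sequenced on an Illumina HiSeq 2500. Relative association constants came from read-count changes of each variant against the control reaction, normalised to the cognate motif.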
B1: the binding signal is 0.0167 KA relative to UGCAUGU.
In the case of B2, the binding signal was 0.0114 KA relative to UGCAUGU.
The same measure for B3: 0.00509 KA relative to UGCAUGU.
The figure for B4 is 0.00323 KA relative to UGCAUGU; for B5 it is 0.00208 KA relative to UGCAUGU; for B6 it is 0.00948 KA relative to UGCAUGU.
In the case of B7, the binding signal is 0.00601 KA relative to UGCAUGU.
The same measure for B8: 0.00592 KA relative to UGCAUGU; for B9: 0.00173 KA relative to UGCAUGU.
For B10, the binding signal is 0.0239 KA relative to UGCAUGU.
The same measure for B11: 0.017 KA relative to UGCAUGU.
The same measure for B12: 0.0216 KA relative to UGCAUGU; for B13: 0.00849 KA relative to UGCAUGU; for B14: 0.00303 KA relative to UGCAUGU.
With B15, the binding signal is 0.00955 KA relative to UGCAUGU.
The figure for B16 is 0.0214 KA relative to UGCAUGU.
With B17, the binding signal is 0.0025 KA relative to UGCAUGU.
For the molecule B18, the binding signal was 0.0112 KA relative to UGCAUGU.
The figure for B19 is 0.0107 KA relative to UGCAUGU.
The figure for B20 is 0.00764 KA relative to UGCAUGU.
